Test results taken from US20220153839A1 (NBE THERAPEUTICS, published 2022).

Assays:
Assay in all cases: cell-based or functional assay
[1] = target: T1, human ROR1, full length, on cells (human, UniProt Q01973 30-937)
[2] = target: T1, human ROR1, full length, on cells; remark: listed apart in the source
[3] = target: T1, human ROR1, full length, on cells; remark: listed apart in the source
[4] = target: T1, human ROR1, full length, on cells; remark: listed apart in the source
[5] = target: T1, human ROR1, full length, on cells; remark: listed apart in the source
[6] = target: T1, human ROR1, full length, on cells; remark: listed apart in the source

T1 sequence (Q01973 30-937): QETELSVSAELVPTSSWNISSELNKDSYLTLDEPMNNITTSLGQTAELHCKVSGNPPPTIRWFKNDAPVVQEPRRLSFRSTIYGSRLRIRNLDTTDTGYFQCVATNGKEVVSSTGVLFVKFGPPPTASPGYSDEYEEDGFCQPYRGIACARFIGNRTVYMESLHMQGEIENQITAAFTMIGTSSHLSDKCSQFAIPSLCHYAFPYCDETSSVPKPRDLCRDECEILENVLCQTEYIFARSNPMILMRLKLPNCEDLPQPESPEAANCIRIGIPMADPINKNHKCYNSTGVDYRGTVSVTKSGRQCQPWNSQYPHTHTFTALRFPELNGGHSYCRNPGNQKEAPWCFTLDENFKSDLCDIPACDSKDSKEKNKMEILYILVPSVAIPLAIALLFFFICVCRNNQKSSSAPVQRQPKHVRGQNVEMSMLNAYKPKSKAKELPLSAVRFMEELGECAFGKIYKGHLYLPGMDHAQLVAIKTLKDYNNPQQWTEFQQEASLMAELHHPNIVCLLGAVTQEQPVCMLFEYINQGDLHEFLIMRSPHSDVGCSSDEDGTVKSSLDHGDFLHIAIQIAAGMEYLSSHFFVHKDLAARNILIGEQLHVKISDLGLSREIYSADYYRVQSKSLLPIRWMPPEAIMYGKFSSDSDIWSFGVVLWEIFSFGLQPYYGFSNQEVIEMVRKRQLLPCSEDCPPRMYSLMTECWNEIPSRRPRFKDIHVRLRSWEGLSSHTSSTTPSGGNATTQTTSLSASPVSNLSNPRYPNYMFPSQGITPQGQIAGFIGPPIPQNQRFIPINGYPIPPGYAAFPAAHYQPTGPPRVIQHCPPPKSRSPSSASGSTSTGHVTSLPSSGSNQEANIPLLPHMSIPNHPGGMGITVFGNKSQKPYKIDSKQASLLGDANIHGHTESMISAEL

B1: R12-G5-PNU antibody drug conjugate (other)
heavy: QEQLVESGGRLVTPGGSLTLSCKASGFDFSAYYMSWVRQAPGKGLEWIATIYPSSGKTYYATWVNGRFTISSDNAQNTVDLQMNSLTAADRATYFCARDSYADDGALFNIWGPGTLVTISS[no letters for human IgG1 constant region]LPETGGWSHPQFEK
light: ELVLTQSPSVSAALGSPAKITCTLSSAHKTDTIDWYQQLQGEAPRYLMQVQSDGSYTKRPGVPDRFSGSSSGADRYLIIPSVQADDEADYYCGADYIGGYVFGGGTQLTVTGQPKAAPSVTLFPPSSEELQANKATLVCLISDFYPGAVTVAWKADSSPVKAGVETTTPSKQSNNKYAASSYLSLTPEQWKSHKSYSCQVTHEGSTVEKTVAPTECSGGGGSLPETGGWSHPQFEK
modifications: Gly5-EDA-PNU joined by sortase to the C-terminal G5SLPETG tag; Gly5-EDA-PNU joined by sortase to the C-terminal LPETG tag
[1]
  IC50 of in vitro cell killing, HS 578T cells (hROR1 status positive): 3.5 µg/mL
  IC50 of in vitro cell killing, MDA-MD-468 cells (hROR1 status positive): 0.349 µg/mL
[2]
  IC50 (cell killing of Kasumi-2 cells, luminescence): 0.0018 µg/mL
[3]
  IC50 (read off the curve): ~0.01 µg/mL
[4]
  IC50 of in vitro cell killing, 697 cells: 0.0721 µg/mL
[5]
  IC50 (cell killing of 697 cells, luminescence): 0.16 µg/mL

B2: Ms961-G5-PNU (adc396) antibody drug conjugate (other)
heavy: EIQLQQSGPVLVKPGASVKVSCKASGYAFTAYNIHWVRQSHGKRLEWIGSFDPYDGGSSYNQKFKDKATLTVDKSSTTAYMHLNSLTSEDSAVYYCARGWYYFDYWGHGTTLTVSS[no letters for human IgG1 constant region]LPETGGWSHPQFEK
light: DVQITQSPSYLAASPGETITINCRASKSISKYLAWYQEKPGKTNKLLIYSGSTLQSGIPSRFRGSGSGTDFTLTISSLEPEDFAMYYCQQHDESPYTFGEGTKLEIKRTVAAPSVFIFPPSDEQLKSGTASVVCLLNNFYPREAKVQWKVDNALQSGNSQESVTEQDSKDSTYSLSSTLTLSKADYEKHKVYACEVTHQGLSSPVTKSFNRGECGGGGSLPETGGWSHPQFEK
modifications: Gly5-EDA-PNU joined by sortase to the C-terminal G5SLPETG tag; Gly5-EDA-PNU joined by sortase to the C-terminal LPETG tag
[6]
  IC50 of in vitro cell killing, hROR1-overexpressing EMT-6: 0.0115 µg/mL

B3: 2A2-G5-PNU antibody drug conjugate (other)
heavy: QVQLQQSGAELVRPGASVTLSCKASGYTFSDYEMHWVIQTPVHGLEWIGAIDPETGGTAYNQKFKGKAILTADKSSSTAYMELRSLTSEDSAVYYCTGYYDYDSFTYWGQGTLVTVSA[no letters for human IgG1 constant region]LPETGGWSHPQFEK
light: DIVMTQSQKIMSTTVGDRVSITCKASQNVDAAVAWYQQKPGQSPKLLIYSASNRYTGVPDRFTGSGSGTDFTLTISNMQSEDLADYFCQQYDIYPYTFGGGTKLEIKRTVAAPSVFIFPPSDEQLKSGTASVVCLLNNFYPREAKVQWKVDNALQSGNSQESVTEQDSKDSTYSLSSTLTLSKADYEKHKVYACEVTHQGLSSPVTKSFNRGECGGGGSLPETGGWSHPQFEK
modifications: Gly5-EDA-PNU joined by sortase to the C-terminal G5SLPETG tag; Gly5-EDA-PNU joined by sortase to the C-terminal LPETG tag
[1]
  IC50 of in vitro cell killing, HS 578T cells (hROR1 status positive): 1.78 µg/mL
  IC50 of in vitro cell killing, MDA-MD-468 cells (hROR1 status positive): 0.456 µg/mL
[2]
  IC50 (cell killing of Kasumi-2 cells, luminescence): 0.0012 µg/mL
[4]
  IC50 of in vitro cell killing, 697 cells: 0.038 µg/mL
[5]
  IC50 (cell killing of 697 cells, luminescence): 0.118 µg/mL

B4: R11-G5-PNU (adc041) antibody drug conjugate (other)
heavy: QSVKESEGDLVTPAGNLTLTCTASGSDINDYPISWVRQAPGKGLEWIGFINSGGSTWYASWVKGRFTISRTSTTVDLKMTSLTTDDTATYFCARGYSTYYGDFNIWGPGTLVTISS[no letters for human IgG1 constant region]LPETGGWSHPQFEK
light: ELVMTQTPSSTSGAVGGTVTINCQASQSIDSNLAWFQQKPGQPPTLLIYRASNLASGVPSRFSGSRSGTEYTLTISGVQREDAATYYCLGGVGNVSYRTSFGGGTEVVVKRTVAAPSVFIFPPSDEQLKSGTASVVCLLNNFYPREAKVQWKVDNALQSGNSQESVTEQDSKDSTYSLSSTLTLSKADYEKHKVYACEVTHQGLSSPVTKSFNRGECGGGGSLPETGGWSHPQFEK
modifications: Gly5-EDA-PNU joined by sortase to the C-terminal G5SLPETG tag; Gly5-EDA-PNU joined by sortase to the C-terminal LPETG tag
[4]
  IC50 of in vitro cell killing, 697 cells: 0.47 µg/mL
